According to patent US20200397913A1, “AXL-SPECIFIC ANTIBODY-DRUG CONJUGATES FOR CANCER TREATMENT” (GENMAB A/S, priority 2015, published 2020):

Key:
[1] = tested on: MDA-MB-231 and Calu-1 cells; experiment: Internalization of cell surface bound HuMab-AXL by flow cytometry; type: cell-based, human; settings: 1 hour 4° C, then overnight 37° C versus 4° C
Protocol: Internalization of cell surface bound HuMab-AXL antibodies to MDA-MB-231 and Calu-1 cells (human lung carcinoma cell line; ATCC, catalognumber HTB-54) was evaluated by flow cytometry. 50,000 cells were seeded in 96-well tissue culture plates and allowed to attach for 6 hrs at 37° C. Plates were incubated at 4° C. for 30 minutes before incubation with serial dilutions of AXL-antibodies (final concentration range 0.0032-10 μg/mL) at 4° C. for 1 hour. Subsequently, the medium was replaced by tissue culture medium without antibody and cells were incubated overnight (16-18 hours) at 37° C. or 4° C. […] Finally, cells were washed twice in PBS/0.1% BSA/0.02% azide, resuspended in 120 μL PBS/0.1% BSA/0.02% azide and analyzed on a FACS Cantoll (BD Biosciences).
(§1) Binding curves were analyzed using non-linear regression (sigmoidal dose-response with variable slope) using GraphPad Prism V5.04 software (GraphPad Software, San Diego, Calif., USA).

[2] = target: T1, Gas6 binding to AXL on A431 cells (Homo sapiens, UniProt P30530); experiment: Gas6 binding to A431 cells pre-incubated with AXL antibodies
T1 construct: endogenous in cells; host or cells: A431
Protocol: Alternatively, A431 cells were pre-incubated with 10 μg/mL AXL antibodies (15 minutes, 4° C.) to assess if the AXL ligand Gas6 could still bind in presence of AXL antibodies. […] After washing three times in PBS/0.1% BSA/0.02% azide, cells were incubated with mouse anti-Gas6 IgG2a (R&D Systems; cat no. MAB885) at 4° C. for 30 min. After washing three times in PBS/0.1% BSA/0.02% azide, cells were incubated with FITC-labelled goat anti-mouse IgG (Dako, Heverlee, Belgium; cat no. F049702) at 4° C. for 30 min in the dark. Next, cells were washed twice in PBS/0.1% BSA/0.02% azide, resuspended in 120 μL PBS/0.1% BSA/0.02% azide and analyzed on a FACS Cantoll (BD Biosciences).
as §1
Therefore, binding of Gas6 to A431 cells that had been pre-incubated with 10 μg/mL AXL antibodies was tested as described in Example 2.

[3] = tested on: A431 tumors; experiment: Therapeutic A431 xenograft model; type: in vivo, SCID mice; settings: 3 mg/kg intraperitoneally, model produces high levels of Gas6
Protocol: (§2) Tumor induction was performed by subcutaneous injection of 5×10^6 A431 or LCLC-103H tumor cells (both obtained from Leibniz-Institut—Deutsche Sammlung von Mikroorganismen and Zellkulturen GmbH (DSMZ)) in 200 μL PBS in the right flank of female SCID mice. Treatment was started 14-21 days after tumor cell inoculation, when the average tumor size was >100-200 mm^3 and distinct tumor growth was observed. Mice received a single injection or a total of 4 biweekly intraperitoneal injections with IgG1-AXL-vcMMAE ADCs or control antibody (unconjugated IgG1-b12), as indicated. Tumor volume was determined at least two times per week. Tumor volumes (mm^3) were calculated from caliper (PLEXX) measurements as: 0.52×(length)×(width)2.

[4] = tested on: LCLC-103H xenograft tumors; experiment: Therapeutic LCLC-103H xenograft model; type: in vivo, SCID mice; settings: Example 13: 3 mg/kg intraperitoneally
Protocol: 5×10^6 LCLC-103H (large cell lung carcinoma) tumor cells (obtained from Leibniz-Institut DSMZ-Deutsche Sammlung von Mikroorganismen and Zellkulturen GmbH (DSMZ)) in 200 μL PBS were injected subcutaneously in the right flank of female SCID mice. Starting 14-21 days after tumor cell inoculation, when the average tumor size was >100-200 mm^3 and distinct tumor growth was observed, a single injection with 1 mg/kg (20 μg/mouse) IgG1-AXL-vcMMAE antibodies (as described in Supplementary Example 1) or control (unconjugated IgG1-b12) was given intraperitoneally (100 μL/mouse). Tumor volume was determined at least two times per week. Tumor volumes (mm^3) were calculated from caliper (PLEXX) measurements as: 0.52×(length)×(width)^2.
as §2, with “Mice received a single injection or a total of 4 biweekly intraperitoneal injections with IgG1-AXL-vcMMAE ADCs or control antibody (unconjugated IgG1-b12), as indicated.” left out

B1: IgG1-AXL-061: human IgG1,κ anti-AXL antibody, VH SEQ ID NO:143, VL SEQ ID NO:144; Ig1 domain binding (antibody, V domains shown)
VH: QVQLVQSGAEVKKPGASVKVSCKASGYAFTGYGISWVRQAPGQGLEWIGWISAYNGNTNYVQNLQDRVTMTTDTSTSTAYMELRSLRSDDTAVYYCARDHISMLRGIIIRNYWGQGTLVTVSS
VL: [skipping about 100 residues]
modifications: homo sapiens
internalization of membrane-bound antibody [1]: internalize
binding of Gas6 to A431 cells pre-incubated with antibody ([2]; 10 μg/mL antibody, versus IgG1-b12 and medium controls): largely reduced
Gas6 binding: Maximal binding in presence of AXL antibodies (% of binding in presence of control antibody) ([2]; pre-incubation with 10 μg/mL antibody, control antibody b12): 22%

B2: IgG1-AXL-061-vcMMAE: IgG1-AXL-061 (Ig1 binder) conjugated to vcMMAE (conjugate)
VH: QVQLVQSGAEVKKPGASVKVSCKASGYAFTGYGISWVRQAPGQGLEWIGWISAYNGNTNYVQNLQDRVTMTTDTSTSTAYMELRSLRSDDTAVYYCARDHISMLRGIIIRNYWGQGTLVTVSS
VL: [skipping about 100 residues]
anti-tumor activity [3]: did not show anti-tumor activity
anti-tumor activity [4]: induced tumor regression
